Source: the BET-seq Pho4 binding data (Le et al. 2018)
This is one part of the list. The energies were worked out here from pooled read counts, against the library average; single values are noisy.

biological target: T1, Pho4 (S. cerevisiae) (UniProt P07270); assay: relative binding free energy (BET-seq); higher = weaker binding; settings: reference: library average
T1 sequence: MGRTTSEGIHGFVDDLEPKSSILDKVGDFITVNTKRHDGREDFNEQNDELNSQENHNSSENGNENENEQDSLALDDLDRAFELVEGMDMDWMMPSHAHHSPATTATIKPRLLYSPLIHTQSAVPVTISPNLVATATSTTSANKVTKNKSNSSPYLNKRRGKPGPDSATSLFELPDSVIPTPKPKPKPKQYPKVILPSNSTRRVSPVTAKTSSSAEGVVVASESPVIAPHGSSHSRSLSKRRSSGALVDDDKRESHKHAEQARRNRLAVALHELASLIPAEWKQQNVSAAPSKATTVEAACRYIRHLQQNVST

Sequence | relative binding free energy [kcal/mol]
AGGTGCACGTGATAAA | 0.15
CTTTTCACGTGTGGGA | 0.28
TGATACACGTGGGCGA | -0.1
GGATGCACGTGCGTTT | -0.1
AGTTTCACGTGTCAAG | 0.2
GGTAGCACGTGTCGTT | 0.01
GGGTCCACGTGTGAAG | 0.12
CATGTCACGTGTTGTG | 0.12
TGTTACACGTGGGCTA | 0.04
ATATTCACGTGACGTG | 0.35
ACTGTCACGTGGCGGT | 0
TCGGGCACGTGGGGGC | -0.2
AGAGACACGTGCGGTG | -0.08
TGTGACACGTGGGAAC | -0.03
GTTGACACGTGGAGGG | 0.04
TTTAACACGTGATTTA | -0.02
ATGGGCACGTGCAGAG | -0.08
GGTCACACGTGGAGTA | 0.05
TACGGCACGTGGGGGG | -0.23
AGTCGCACGTGGAGGG | -0.13
AGATACACGTGTGTGG | -0.03
TCGGGCACGTGGTGAT | -0.11
ACGTTCACGTGCTTGG | 0.1

Sequence | relative binding free energy [kcal/mol]
AGATACACGTGGGGGG | -0.1
AAAGTCACGTGGGTTT | 0.07
TTTCGCACGTGTGCGT | -0.19
AACAGCACGTGAAGGG | 0.29
TGGGTCACGTGGAGGC | 0.19
TGTCGCACGTGGTTAT | -0.15
ATCTTCACGTGGTTTA | 0.12
CGGGACACGTGGTTAA | 0.02
GTAAGCACGTGCCGGG | -0.14
ATGTGCACGTGTTAGT | -0.12
TGGAGCACGTGATGGG | 0.06
AGAATCACGTGGTGAG | 0.11
TGGGACACGTGAAGCG | 0.24
TGAGTCACGTGGCGAG | -0.02
GCTGTCACGTGCTGGT | 0.04
TGATCCACGTGTTTTG | 0.04
GGATTCACGTGTAGAG | 0.3
AAATTCACGTGGGGAT | 0.2
TGCTGCACGTGCGGTT | -0.01
TCGAGCACGTGGGCTT | -0.06
TAGAACACGTGAGGTG | 0.23
TTCTTCACGTGTATTA | 0
TGTAACACGTGAATGG | 0.33

Sequence | relative binding free energy [kcal/mol]
GGTATCACGTGGGACA | 0.25
TCAGCCACGTGGTAGT | 0.06
CATTTCACGTGGTGAG | 0.22
GAAAGCACGTGGGTTC | 0.04
GGGCGCACGTGATTAG | 0.06
AAGATCACGTGGTGTG | 0.03
TAGTGCACGTGGGGCC | -0.21
AGGGGCACGTGGCTTG | -0.3
GTACGCACGTGTGTGT | -0.2
GTAGGCACGTGGATTA | -0.01
GATTGCACGTGAGGGC | 0.16
TCATGCACGTGTGCTG | -0.07
AGGCTCACGTGTTGAG | 0.2
GTTGGCACGTGGTGGT | -0.02
TGCAACACGTGGTGTT | -0.09
GTATACACGTGCGTGT | -0.14
TTCAACACGTGGATGT | 0.03
TAGGTCACGTGGGTCG | -0.08
TAGGGCACGTGGACTG | -0.14
GTATCCACGTGAGGGG | 0.19
CGGGGCACGTGCTTTG | -0.26
CCGGCCACGTGGGTTG | -0.04
GTGTGCACGTGTGCTT | 0.05

Sequence | relative binding free energy [kcal/mol]
TATAGCACGTGCGATG | -0.07
GTAGGCACGTGTGCTT | -0.03
ATGGTCACGTGATGTC | 0.17
ATAAACACGTGAGTTT | 0.18
CGAAGCACGTGGGGGT | -0.22
ACTGGCACGTGAATGT | 0.09
GTAGGCACGTGTTCAG | -0.03
TGCGTCACGTGCTCGG | 0.02
CAAGACACGTGGGGGG | -0.17
TGAGACACGTGGTGGG | -0.02
GTTTACACGTGGTGTG | 0.18
AGTGACACGTGTTGAA | 0.09
GCTTGCACGTGTGTGT | 0.03
AGTTTCACGTGTAGGT | 0.18
GGAGCCACGTGGTGTT | -0.09
GTGGGCACGTGGTGCT | -0.18
CTATGCACGTGAAGGG | 0.04
TATTGCACGTGGGGAC | -0.06
CTCGGCACGTGCGGGG | -0.11
GTCTTCACGTGTTCGT | 0.31
TTATGCACGTGTGCGA | 0
GAATACACGTGGATGT | 0.2
ATTTGCACGTGTAAAT | 0.13

Sequence | relative binding free energy [kcal/mol]
TGTTCCACGTGATGGG | 0.18
CGTATCACGTGGGATG | 0.03
TTTGGCACGTGAGGAA | 0.11
GGGAACACGTGGTTGT | -0.08
TTTCCCACGTGTTTGG | -0.13
TGGTGCACGTGACGGG | 0.13
TTAGGCACGTGCTAAG | -0.04
TGTTTCACGTGGGATA | 0.25
TGATGCACGTGAATAG | 0.16
ATTGACACGTGGGTCT | -0.19
TAGGGCACGTGCCTGT | -0.16
TTTTACACGTGGTCGG | 0.12
TATGGCACGTGAGGGA | 0.17
TTTAACACGTGATACT | 0.16
TGCCACACGTGGTGTG | -0.13
GGCTGCACGTGTGGTT | 0.03
AGTCTCACGTGAGTAG | 0.4
GGTCGCACGTGGCTGG | -0.1
CGGTGCACGTGGGTAT | -0.25
GATCGCACGTGGGGGT | -0.2
AGTGGCACGTGTTCAG | -0.1
CTGCTCACGTGGTTTG | 0.24
GTGATCACGTGAAGGT | 0.33
